Reference: PubChem BioAssay AID1030 (National Center for Advancing Translational Sciences (NCATS), 2008)
The whole screen tested about 220,000 compounds, of which about 16,000 (7.3%) were called active. Inconclusive results, whose numbers are uncertain, are shown with a selection of clear calls. Calls come from the whole dose curve; as a rule, active = well fitted inhibition curve with a large enough effect (not every such curve was filed as active); inconclusive = small, poorly fitted or top-dose-only effect, or another doubt; inactive = no such curve, though single readings can be large or run the other way. Potencies of inconclusive entries are left out as doubtful fits.

These compounds were tested against Aldehyde dehydrogenase 1A1 (Homo sapiens) (UniProt P00352) (assay: qHTS Assay for Inhibitors of Aldehyde Dehydrogenase 1 (ALDH1A1)). Conditions: Purified ALDH1A1, NADH fluorescence, propionaldehyde substrate; series mostly up to 75.3 µM; activity, negative = inhibition: at the top concentration.
Chain of UniProt P00352 (P00352 whole entry, looked up): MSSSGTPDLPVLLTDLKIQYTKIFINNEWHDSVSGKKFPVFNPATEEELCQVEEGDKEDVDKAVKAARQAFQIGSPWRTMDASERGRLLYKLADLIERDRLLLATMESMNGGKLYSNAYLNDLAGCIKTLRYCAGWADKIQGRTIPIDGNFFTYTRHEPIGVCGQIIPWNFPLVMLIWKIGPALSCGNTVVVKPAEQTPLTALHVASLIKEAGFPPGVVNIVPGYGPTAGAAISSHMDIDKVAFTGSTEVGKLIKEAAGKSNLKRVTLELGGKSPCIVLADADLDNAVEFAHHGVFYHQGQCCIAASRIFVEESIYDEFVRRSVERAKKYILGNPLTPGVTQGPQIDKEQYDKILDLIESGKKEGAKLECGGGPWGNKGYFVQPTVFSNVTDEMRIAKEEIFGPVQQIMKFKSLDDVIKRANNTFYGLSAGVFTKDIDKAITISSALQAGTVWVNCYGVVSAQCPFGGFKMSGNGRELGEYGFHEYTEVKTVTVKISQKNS
Potency is the fitted concentration of half-maximal effect; tags give direction and shape of the fitted curve.
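Throughout, for activity, negative = inhibition: plate controls were no enzyme wells and a reference inhibitor.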

SMILES	activity, negative = inhibition	Potency
COc1ccc(NC(=O)CCNS(=O)(=O)c2ccc3c(c2)c(=O)n(C)c(=O)n3C)cc1OC	inactive: 4.29%	
C=CCc1cccc(CNc2ccc(Br)cc2)c1O	inactive: 5.76%	
COc1ccc(CCNC(=O)c2ccc(-c3ccc([N+](=O)[O-])cc3)o2)cc1OC		active: 10 µM
O=S1(=O)CCN2C=C(Cl)C=C(Cl)C2=N1		inconclusive [inhibitor, partial curve]
COc1cc(C)ccc1OCCOc1cc(C)ccc1Cl		inconclusive [inhibitor, partial curve, poor fit]
CC(=O)c1ccc(NC(=O)C(C)NCc2ccccc2Cl)cc1 (stereo not given)	inactive: -1.45%	
Cc1cc(OCc2nn[nH]n2)c2c(C)c(CC(=O)O)c(=O)oc2c1		inconclusive [inhibitor, partial curve]
c1ccc(CNc2cc(-c3cccnc3)ncn2)cc1		inconclusive [inhibitor, single point]
CC(C)(C)Cc1nnc(NS(=O)(=O)Cc2ccccc2)s1		active: 25.1 µM
CCn1c2ccccc2n2c(=O)c(=O)n(CC(=O)Nc3ccc(C(C)C)cc3)nc12		inconclusive [inhibitor, single point]
COC(=O)C1=C(N)c2ccccc2C1(C#N)c1ccccc1 (stereo not given)		inconclusive [inhibitor, single point]
Cc1ccc(OCCN2C(=O)c3ccccc3C2=O)c([N+](=O)[O-])c1		inconclusive [inhibitor, partial curve]
CCOc1ccccc1NC(=O)C(OC(=O)c1ccccc1)c1ccccc1 (stereo not given)		inconclusive [inhibitor, partial curve]
CC1(C)N=C(N)N=C(N)N1c1cccc(CSc2ccccc2)c1	inactive: 4.81% [at 13.5 µM]	
CCC(=O)N1CCCc2cc(S(=O)(=O)N3CCN(c4ncccn4)CC3)ccc21		inconclusive [inhibitor, single point]
CCOC(=O)c1cnc2c(c(C)nn2CC)c1Cl	inactive: -22.9%	
COc1ccc(CNC(=O)CN2C(=O)C3CCCN3c3ncc(Cl)cc32)cc1 (stereo not given)		inconclusive [inhibitor, single point]
CC1=C(C(=O)OCc2ccccc2)C(C2CC2)NC(=O)N1CCCCCC(=O)O (stereo not given)		inconclusive [inhibitor, partial curve]
CCCCNC(=O)CSc1nc2ccc(NC(=O)CSc3nnc(COc4ccccc4C)n3C)cc2s1		active: 3.55 µM
CN1CCN(c2ccc(S(=O)(=O)N3CCCCC3)cc2NC(=O)Cc2ccc(Cl)cc2)CC1		inconclusive [inhibitor, single point]
c1ccc2c(c1)oc1c(Nc3ccc(CN4CCOCC4)cc3)ncnc12		active: 20 µM
Cc1nc2c(N=Nc3ccccc3F)c(N)nn2c(N)c1C#N	inactive: 0.148%	

SMILES	activity, negative = inhibition	Potency
O=C(Nc1cccc(NC(=O)C2CCCO2)c1)c1ccco1 (stereo not given)	inactive: -5.27%	
CN(Cc1ccccc1)C(=O)COC(=O)c1ccc(S(=O)(=O)N(C)C)cc1	inactive: 1.2%	
COc1ccc(C)cc1NC(=O)C(Sc1nnc(-c2ccncc2)n1-c1ccc(Cl)cc1)c1ccccc1 (stereo not given)		inconclusive [inhibitor, partial curve]
NC(=O)c1ccccc1N/C=C/C(=O)c1ccc(Cl)cc1	inactive: -3.03%	
COc1ccc(CCNc2oc(Cc3ccccc3)nc2C#N)cc1OC		inconclusive [inhibitor, single point]
CCC(C(=O)Nc1nnc(-c2ccco2)s1)c1ccccc1 (stereo not given)		inconclusive [inhibitor, partial curve]
Cc1cc2cccc(C)c2nc1SCC(=O)NNC(=O)c1ccco1		inconclusive [inhibitor, single point]
CCOC(=O)N1CCN(C(=O)/C=C/c2ccc3c(c2)OCO3)CC1		inconclusive [inhibitor, single point]
CC(=O)c1cccc(NC(=O)C(C)OC(=O)CNC(=O)c2ccc(C)s2)c1 (stereo not given)		inconclusive [inhibitor, single point]
CCOc1cccc(C(=O)c2ccc(O)c(O)c2O)c1		active: 1.58 µM
Cc1ccc(C(=O)CCC(=O)O)cc1	inactive: -1.02%	
Cc1ccc(NC(=S)N(CCN(C)C)C(C)c2cccnc2)c(C)c1 (stereo not given)	inactive: 4.58%	
Cc1cccc(-n2c(SCC(=O)Nc3nonc3C)nnc2-c2ccoc2C)c1		inconclusive [inhibitor, single point]
O=C(CCN(NC(=O)c1ccccc1)C1=NS(=O)(=O)c2ccccc21)NC1CCCCC1	inactive: 64.2%	
O=C(CSc1nc2cc(C(F)(F)F)ccc2n1Cc1ccccc1)NC1CCS(=O)(=O)C1 (stereo not given)		inconclusive [inhibitor, single point]
COc1ccccc1NC(=S)NC(=O)/C=C/c1cccs1		inconclusive [inhibitor, single point]
Fc1cccc2sc(Nc3nc4c(F)cccc4s3)nc12		inconclusive [inhibitor, single point]
COc1cc(-c2nnc(SCC(=O)Nc3ccc4c(c3)OCCO4)o2)cc(OC)c1OC		inconclusive [inhibitor, single point]
CCc1ccc(CN2CCC(CO)(CC3CCCCO3)CC2)o1 (stereo not given)		active: 8.91 µM
N=c1n(CCO)c2ccccc2n1Cc1ccc(Cl)cc1		inconclusive [inhibitor, single point]
O=C(COC(=O)c1cc(=O)[nH]c(=O)[nH]1)Nc1cccc(S(=O)(=O)N2CCCCC2)c1	inactive: 3.83%	
O=c1c(/C=C(\O)c2ccc(F)cc2)nc2ccccc2n1-c1ccccc1		inconclusive [inhibitor, single point]

SMILES	activity, negative = inhibition	Potency
COc1cc(NC(=O)CN2CCN(S(=O)(=O)c3ccc(C(C)C)cc3)CC2)cc(OC)c1		active: 2.24 µM
O=C(CN(Cc1ccco1)C(=O)CNS(=O)(=O)c1ccccc1)NC1CCCCC1	inactive: 3.84%	
c1ccc(Cn2c3ccccc3c3nnc(SCCN4CCCCC4)nc32)cc1		inconclusive [inhibitor, single point]
Cc1nn(Cc2cccc(F)c2)c(C)c1NC(=O)c1ccc(COc2ccccc2Cl)cc1		inconclusive [inhibitor, partial curve]
Cc1nc([N+](=O)[O-])c(NCCO)n1Cc1ccccc1	inactive: 1.96%	
COc1ccccc1NC(=O)CN1CCN(CC(=O)Nc2ccc(Cl)c(C(F)(F)F)c2)CC1		inconclusive [inhibitor, single point]
Cc1ccc(C(=O)NC(=S)Nc2ccc(N3CCOCC3)cc2)cc1		active: 11.2 µM
COC(=O)c1ccc(S(=O)(=O)c2ccccc2)c(N)c1		inconclusive [inhibitor, partial curve]
COCC(=O)NC1(c2nnnn2CCOC(=O)Nc2ccc(Cl)cc2)CCCCC1		inconclusive [inhibitor, single point]
COC(=O)c1cc(COC(=O)c2nc3nc(C)cc(C)n3n2)oc1C		inconclusive [inhibitor, single point]
O=C1c2ccccc2C(=O)N1CC(O)Cn1nnc2ccccc21 (stereo not given)		inconclusive [inhibitor, single point]
CCOc1cc(/C=N/NC(=O)c2ccc(CSc3nncn3C)cc2)ccc1OCC(=O)N1CCOCC1	inactive: 1.26%	
COc1ccc2nc(C)cc(SCC(=O)N/N=C/c3c(OC)ccc4ccccc34)c2c1		inconclusive [inhibitor, single point]
COC(=O)c1c(NC(=O)COC(=O)[C@@H](NS(=O)(=O)c2cccc(Cl)c2)C(C)C)sc2c1CCC2		inconclusive [inhibitor, single point]
Cc1c(NC(=O)C(=O)/C=C(/O)c2ccccc2)c(=O)n(-c2ccccc2)n1C		inconclusive [inhibitor, single point]
Cc1ccc(OCC(=O)c2ccc(Cl)s2)c([N+](=O)[O-])n1		active: 2.24 µM
Cn1cnc([N+](=O)[O-])c1[Se]c1nc(N)nc2c1ncn2[C@@H]1O[C@@H](CO)[C@H](O)[C@@H]1O	inactive: 6.19% [at 13.5 µM]	
Cc1scc(C(=O)N2CCN(c3ccc(Cl)cc3)CC2)c1C		active: 20 µM
CN(Cc1ccccc1)CC(O)COc1ccc(CNCc2cccnc2)cc1 (stereo not given)		inconclusive [inhibitor, single point]
Cc1ccc(-n2nnnc2SCC(=O)Nc2ccccc2-c2ccccc2)cc1C		inconclusive [inhibitor, partial curve]
O=C1Oc2ccccc2C(=O)/C1=C\N1CCN(c2ccccc2)CC1		inconclusive [inhibitor, partial curve]
